This sample is rich in variants without activity.
B1: TPR 5TU (parent)
chain: GGAUCUUCUCGAUCUAACAAAAAAGACAAAUCUGCCACAAAGCUUGAGAGCAUCUUCGGAUGCAGAGGCGGCAGCCUUCGGUGGCGCGAUAGCGCCAACGUUCUCAACUAUGACACGCAAAACGCGUGCUCCGUUGAAUGGAGUUUAUCAUG

Variants of: B1
Experiment: polymerase ribozyme fitness, log enrichment relative to wild type (log ratio); higher = more active; in vitro selection for triplet polymerase activity
Method in brief: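 A single round of triplicate in vitro selection, including frozen incubation at −7 °C, was applied to PCR-built, transcribed mutant libraries of each subunit of a heterodimeric triplet polymerase ribozyme. Illumina sequencing of input and output libraries retained genotypes with ≥10 input reads and ≥1 read per output. Fitness is the base-2 logarithm of genotype enrichment divided by wild-type enrichment, from inverse-variance-weighted replicate averages.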

G50C G84A U151G and A49C G59A A64G G70A G83C C93U cannot be ordered by “polymerase ribozyme fitness (log ratio)” value: no more than -4.2 for the first, no more than -4.2 for the second.

C51U U53A G86U U90C C131A U144G and A49G G74C U101G G112C A122U U127A A138C cannot be ordered by “polymerase ribozyme fitness (log ratio)” value: no more than -4.2 for the first, no more than -4.2 for the second.

C51U G74U G83C A98U C114A A121G C149A and A49C U55A A150C cannot be ordered by “polymerase ribozyme fitness (log ratio)” value: no more than -4.2 for the first, no more than -4.2 for the second.

C51U G86A C103G and A49G A52C C85U A106G A138C cannot be ordered by “polymerase ribozyme fitness (log ratio)” value: no more than -4.2 for the first, no more than -4.2 for the second.

C51G A91G G92U U101C and A49C G59A G62C G83A cannot be ordered by “polymerase ribozyme fitness (log ratio)” value: no more than -4.2 for the first, no more than -4.2 for the second.

A49C G50C A52C C93U U151C and G50U G80U C108G cannot be ordered by “polymerase ribozyme fitness (log ratio)” value: no more than -4.2 for the first, no more than -4.2 for the second.

G50A A66C G94U and G50A G70A C95U G100A cannot be ordered by “polymerase ribozyme fitness (log ratio)” value: no more than -4.2 for the first, no more than -4.2 for the second.

First: C51G C125U G141U
Second: C51U U56A
The “polymerase ribozyme fitness (log ratio)” value of the first is lower: -3.54 for the first, -0.892 for the second.

First: A49G G84A
Second: G50C G81A G86A A115U G136U
The “polymerase ribozyme fitness (log ratio)” value of the first is higher: -0.52 for the first, no more than -4.2 for the second.

First: C51U G88U
Second: G50A G86A C131U
The “polymerase ribozyme fitness (log ratio)” value of the first is lower: no more than -4.2 for the first, -1.93 for the second.

Going from A49G G59C G67A G70A U77C U82C A89G C95G to G50U C87U A89G, the “polymerase ribozyme fitness (log ratio)” value rises from no more than -4.2 to -3.95.

A49C U53A C116U and G50A U77G G81A A91U A97G A122U cannot be ordered by “polymerase ribozyme fitness (log ratio)” value: no more than -4.2 for the first, no more than -4.2 for the second.

A49C G83C C149A and G50A G68C U77C U82G G92C cannot be ordered by “polymerase ribozyme fitness (log ratio)” value: no more than -4.2 for the first, no more than -4.2 for the second.

G50A G68A G80A C99G U148A A150G and G50A C87A A121C U144G cannot be ordered by “polymerase ribozyme fitness (log ratio)” value: no more than -4.2 for the first, no more than -4.2 for the second.

G50A C75G C96G C116G U144C and G50A C54U A60C G88C cannot be ordered by “polymerase ribozyme fitness (log ratio)” value: no more than -4.2 for the first, no more than -4.2 for the second.

C51A U53A A66G G81C U90C and C51A G58A G74C C96U A107C cannot be ordered by “polymerase ribozyme fitness (log ratio)” value: no more than -4.2 for the first, no more than -4.2 for the second.

A49U A73G A91C G94C G141C and A49C G62U C95U U101C A121G U145G cannot be ordered by “polymerase ribozyme fitness (log ratio)” value: no more than -4.2 for the first, no more than -4.2 for the second.

Going from A49U G62C C123U to A49C U55G C85A, the “polymerase ribozyme fitness (log ratio)” value falls from -2.38 to no more than -4.2.

First: A49G G83A U144G A147U
Second: C51A G86A G126A G128U G141A
The “polymerase ribozyme fitness (log ratio)” value of the first is higher: -1.87 for the first, no more than -4.2 for the second.

A49U C69G C75A U90G and C51A G67A A73G C95A U101G G140U U151G cannot be ordered by “polymerase ribozyme fitness (log ratio)” value: no more than -4.2 for the first, no more than -4.2 for the second.

A49U C75G G92C and C51U G83C G92C A142C cannot be ordered by “polymerase ribozyme fitness (log ratio)” value: no more than -4.2 for the first, no more than -4.2 for the second.

Compared with C51U G62U C75U G88U C95A, G50C G58A C125A is higher in “polymerase ribozyme fitness (log ratio)” value: no more than -4.2 for the first, -3.17 for the second.

A49G A73U G86A A98U A142U U144C and G50C G80A A89C cannot be ordered by “polymerase ribozyme fitness (log ratio)” value: no more than -4.2 for the first, no more than -4.2 for the second.

Compared with C51U U56G A73C C79G C93G A137C, G50U C63U C85A A110G is higher in “polymerase ribozyme fitness (log ratio)” value: no more than -4.2 for the first, -4.19 for the second.

First: C51A U53A C57G C79A A98U C108U
Second: A49G C51G
The “polymerase ribozyme fitness (log ratio)” value of the first is lower: no more than -4.2 for the first, -2.66 for the second.

First: C51A G74A C85A C114A
Second: G50A G59A U101G
The “polymerase ribozyme fitness (log ratio)” value of the first is lower: no more than -4.2 for the first, -0.0298 for the second.

Going from A49G A122U G124U to G50C C57A A66C C85G, the “polymerase ribozyme fitness (log ratio)” value falls from -0.811 to no more than -4.2.

A49U C54A U61A A106U A121C C125G U134C and G50C A113U cannot be ordered by “polymerase ribozyme fitness (log ratio)” value: no more than -4.2 for the first, no more than -4.2 for the second.

First: G50A C93G G124A C125U G133A U135G A150G
Second: C51A C118G
The “polymerase ribozyme fitness (log ratio)” value of the first is lower: no more than -4.2 for the first, -3.24 for the second.

A49G C54G C76G C95A G140U A147U and G50C C87A C95U cannot be ordered by “polymerase ribozyme fitness (log ratio)” value: no more than -4.2 for the first, no more than -4.2 for the second.

First: G50C A91G
Second: G50C G84U A142C
The “polymerase ribozyme fitness (log ratio)” value of the first is higher: -4 for the first, no more than -4.2 for the second.

Compared with A49G G58A, G50A G86U is lower in “polymerase ribozyme fitness (log ratio)” value: -0.296 for the first, -3.78 for the second.

A49G C57U C75A U146G and G50C G65C A120G U146A A150G cannot be ordered by “polymerase ribozyme fitness (log ratio)” value: no more than -4.2 for the first, no more than -4.2 for the second.

C51U A66G G88A and G50C U78A G92A cannot be ordered by “polymerase ribozyme fitness (log ratio)” value: no more than -4.2 for the first, no more than -4.2 for the second.

First: G50U U146C
Second: A49C G84A
The “polymerase ribozyme fitness (log ratio)” value of the first is higher: 0.0837 for the first, no more than -4.2 for the second.

Compared with G50C A64U U78C C116G, G50C C51U G92U is higher in “polymerase ribozyme fitness (log ratio)” value: no more than -4.2 for the first, -2.09 for the second.

A49U C79A G83C C108U C131U G141C and G50C C75A G86U G100A A147G cannot be ordered by “polymerase ribozyme fitness (log ratio)” value: no more than -4.2 for the first, no more than -4.2 for the second.

G50C C69A C75U and A49U U61G A98G C114G U148A cannot be ordered by “polymerase ribozyme fitness (log ratio)” value: no more than -4.2 for the first, no more than -4.2 for the second.

Going from G50C U101G to G50C C93G C99U, the “polymerase ribozyme fitness (log ratio)” value falls from -2.64 to no more than -4.2.

C51A C57A G92U G124C U144C and C51G U56A A106U cannot be ordered by “polymerase ribozyme fitness (log ratio)” value: no more than -4.2 for the first, no more than -4.2 for the second.

Compared with C51A A52U C75U G86A G100A U135G, G50C C118A is higher in “polymerase ribozyme fitness (log ratio)” value: no more than -4.2 for the first, -4.05 for the second.

First: G50U U56A G94U A106G C116G C123U
Second: C51U G65U G92U U109A A137U
The “polymerase ribozyme fitness (log ratio)” value of the first is higher: -0.9 for the first, no more than -4.2 for the second.

Reference: the RNAGym collection of RNA variant scans (doi:10.1073/pnas.2313332121)
